Assay results from article PMC12136788.
The other results are listed elsewhere or left out.

B1: 2404108_2406015_1217_CDS_ENSG00000106263_ENST00000360876|human|control|control (ssRNA)
RNA: GGGAGUUCUACAGUCCGACGAUCCCAGAUGAUUAUGGCCUGAGGGUCAUCCUGCGUGUCCAUCAGGGGGCUAAAGGUCACCAGGUACCUUUCACAAGGUGAGAAGUCAAUAAGCUGAACCCCUUGGUGGCUGAAUCUCUGAAUCAACAGAGGAUUGAGCAUCA
B2: chr13:100193275:100193276:-_ENSMUSG00000052727_ENSMUST00000064762|mus_hu|FALSE|FALSE (ssRNA)
RNA: GGGAGUUCUACAGUCCGACGAUCGUUUUCUUCCCACGCAUUAUGUAGACCAAUUCAACUUAAGAGCUAACCAUUAAAUAAUUAUCUUGAGUAUCUUAGGUUGUGUUAUAAAAUAAAUUUGAAGUAGAUGAGUUUAUACUCAAUCAACAGAGGAUUGAGCAUCA
B3: chr1:78194255:78194256:-_ENSG00000077254_ENST00000357428|hu_mus|FALSE|FALSE (ssRNA)
RNA: GGGAGUUCUACAGUCCGACGAUCAUUGCUGUCCUCAGGAAAGCCUUUGGAGCCACUCUCAUUUUCUGCUUUCUCGCUGCUGCUACAAGACUCGCACGACUGAAAAUCCACAUCUGACUGGCUCUUCUCUUCCUCCACCGUCUCCAACAGAGGAUUGAGCAUCA
B4: chr1:39494564:39494565:+_ENSG00000168653_ENST00000372967|hu_hu|hu_hu_hu_mus_True|1_18 (ssRNA)
RNA: GGGAGUUCUACAGUCCGACGAUCAUGCAUUCGCCUCAUCGUUUUGUACCGAAGCAAGCACUCUUCGAAGUCAUCGAACUCUAUCUUGCACUCCUUUUUCGCCCGGGUCCCACCGAUUCCAUGUGCACACUCUAUCCAUUCUUUCAACAGAGGAUUGAGCAUCA
B5: chr5:71490253:71490254:+_ENSG00000131711_ENST00000296755|hu_hu|FALSE|FALSE (ssRNA)
RNA: GGGAGUUCUACAGUCCGACGAUCCUUGAUGUUUGGCUCUGGAUUUUUGAGAUUUUCAGGUACAUUGAGAAAUACAACUCCUAAGUCAGGGGAGAUGAGGUUUUUCAUCCAGUCACUAUUUGUGGUGGAGCCCUGGGACUGUUCCAACAGAGGAUUGAGCAUCA
B6: chr7:138125181:138125182:+_ENSMUSG00000006205_ENSMUST00000006367|mus_mus|motif|central (ssRNA)
RNA: GGGAGUUCUACAGUCCGACGAUCGAUGCCCGCCGUCACCUUCAAGGUGUUAAUCCCAAUCACCUCGCCAUCCAGGUUUACGGACGGGCCUCCGGAAUUUCCAUAAUUGAUGAUAGCGUCUGUCUGAAUGUAGUCCAUAUCGGACAACAGAGGAUUGAGCAUCA
B7: chr5:138699528:138699529:+_ENSG00000120727_ENST00000265192|hu_hu|FALSE|FALSE (ssRNA)
RNA: GGGAGUUCUACAGUCCGACGAUCGUCAUCUUCAUGAGAAUGACCGUUAAUAAUCACAUCUUCAUUGAUGAUGCUUGGGCUAGUACUGCUGCGACUUGGAUCUUUCAUGGCUGAUGUUGGUUGUCGUUUUUAACCCAAUGCACACAACAGAGGAUUGAGCAUCA
B8: chr7:44244176:44244177:+_ENSG00000106636_ENST00000223369|hu_mus|hu_hu_hu_mus_False|18_58 (ssRNA)
RNA: GGGAGUUCUACAGUCCGACGAUCACUGUCGCUCCGGACGUAGACAUGGCAAAGAUACUCUUGUUCUUUGACAGAAGCUCUAGUGCCUUUCCCCGAGCGUUCCACAAUCAGUUGACUCGUGAAGGUCAUGAAUUCCUGCACACUCAACAGAGGAUUGAGCAUCA
B9: chr1:163112212:163112213:-_ENSG00000143248_ENST00000313961|hu_hu|hu_hu_hu_mus_False|8_78 (ssRNA)
RNA: GGGAGUUCUACAGUCCGACGAUCUUUUAUUAUCAGUAAGAGUGAGUUACAUACUAGAUAAAGUAUUGGAUACAAUAAUCAGGAAACAAACACUAUUGGUCCAGAAUUUAAAACUUUAUGAGCGAAGGCUUACAAAUGGACUUACAACAGAGGAUUGAGCAUCA
B10: chr2:114393739:114393740:-_ENSMUSG00000057147_ENSMUST00000102542|mus_hu|motif|central (ssRNA)
RNA: GGGAGUUCUACAGUCCGACGAUCGUUAGAUGAUAUCAUCUCUCUGAGCAAAUCUUCCUGGUUUCUCUGCCAAAGAUAAGCGGAAGGCUGGAGAUUAAGCCUUUUACACACAUUUUCCACUCGAAUACGCUGAUAGUCAGAAAGCAACAGAGGAUUGAGCAUCA
B11: chr3:9412954:9412955:+_ENSG00000134077_ENST00000452837|hu_mus|hu_hu_hu_mus_False|38_78 (ssRNA)
RNA: GGGAGUUCUACAGUCCGACGAUCGGUUGAUAUCUCUUCUUUGAUGGCUGGAUUUUCAUAAUAAUCUAAGAUAUGUGAAUCUGAAGUGCUGCUGGCAAACUCUUUUUUACCAUCUUUCUCAUCUGCUUUGUCUCCUUGUCCACACAACAGAGGAUUGAGCAUCA
B12: chr5:111654635:111654636:+_ENSMUSG00000033209_ENSMUST00000156290|mus_mus|FALSE|FALSE (ssRNA)
RNA: GGGAGUUCUACAGUCCGACGAUCGGAGGCUUCCCAGCUCUCCGUAGGCCUGAGCUUUAUUGGAGGCCUCCCCGAGCUCAUGGGCCACCACCAGCCUCUUCUCGAAGCACACGAGGGCCUGCUGCAGGCUUCCCGUCGCCCUGUCAACAGAGGAUUGAGCAUCA
B13: chr7:123332509:123332510:-_ENSG00000106299_ENST00000223023|hu_mus|motif|central (ssRNA)
RNA: GGGAGUUCUACAGUCCGACGAUCUGAGCAGGACACGGGCCGGCUAUUCUGUUCCACUUUUUUCAGCUGAGCACCCUCUCGGAUUUGAUCCAAAAGAGCUGCUUUGUUUCCUGAAGGAGCUGGAACUUGAUGGUCACCAUCAGACAACAGAGGAUUGAGCAUCA
B14: chr11:121178941:121178942:+_ENSG00000109929_ENST00000392789|hu_hu|FALSE|FALSE (ssRNA)
RNA: GGGAGUUCUACAGUCCGACGAUCACAUAUUUUUACUCUUAUUAAAUAAUGGUUUUAAAUAAUAAUCAUCACAAUGUUUAGCUACAUAAUCCCAGAUCUGGAUUAAAUCAUGGUGAUAUCGAUAUUUUUAAAUUCCAAUUUAUUCAACAGAGGAUUGAGCAUCA

Molecular target: T1, UNK ZnF1-3 (human, UniProt Q9C0B0 31-174)
T1 sequence: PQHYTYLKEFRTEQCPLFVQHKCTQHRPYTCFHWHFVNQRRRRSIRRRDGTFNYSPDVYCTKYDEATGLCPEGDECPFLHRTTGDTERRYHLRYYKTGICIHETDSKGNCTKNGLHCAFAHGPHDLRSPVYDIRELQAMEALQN
Experiment: nsRBNS (natural sequence RNA bind-n-seq); RBNS binding buffer (assumed for nsRBNS): 25 mM Tris pH 7.5, 150 mM KCl, 3 mM MgCl2, 0.01% Triton X-100, 500 ug/ml BSA, 20 U/ml SUPERase-In, 4 C; UNK is unkempt and MSI1 is Musashi-1; names of the RNAs are library labels; protein concentration not given here; high values mean tight binding

First: B1
Second: B2
The binding signal of the first is lower: 0.415 enrichment R for the first, 1.58 enrichment R for the second.

Going from B3 to B4, the binding signal falls from 0.818 enrichment R to 0.61 enrichment R.

First: B5
Second: B6
The binding signal of the first is higher: 0.783 enrichment R for the first, 0.641 enrichment R for the second.

Compared with B7, B8 is higher in binding signal: 0.46 enrichment R for the first, 0.517 enrichment R for the second.

First: B9
Second: B10
The binding signal of the first is lower: 0.812 enrichment R for the first, 1.04 enrichment R for the second.

Compared with B11, B12 is higher in binding signal: 0.488 enrichment R for the first, 0.586 enrichment R for the second.

First: B13
Second: B14
The binding signal of the first is lower: 0.739 enrichment R for the first, 0.983 enrichment R for the second.
